In PMC8889575:
No constants are given. Whether binding was seen depends on the method and setting. Binding seen in cells or lysates may run through a third protein. Some entries that bind do so weakly or less than the wild type.

Sequences of proteins named here, by UniProt entry; tags and fusion partners are left off. A change or cut given only in a name is not applied to a line headed by its entry. A line that says so, or that is headed by a name, gives the form on record, which may keep a tag or linker. Residues count along the entry.
UniProt P78310: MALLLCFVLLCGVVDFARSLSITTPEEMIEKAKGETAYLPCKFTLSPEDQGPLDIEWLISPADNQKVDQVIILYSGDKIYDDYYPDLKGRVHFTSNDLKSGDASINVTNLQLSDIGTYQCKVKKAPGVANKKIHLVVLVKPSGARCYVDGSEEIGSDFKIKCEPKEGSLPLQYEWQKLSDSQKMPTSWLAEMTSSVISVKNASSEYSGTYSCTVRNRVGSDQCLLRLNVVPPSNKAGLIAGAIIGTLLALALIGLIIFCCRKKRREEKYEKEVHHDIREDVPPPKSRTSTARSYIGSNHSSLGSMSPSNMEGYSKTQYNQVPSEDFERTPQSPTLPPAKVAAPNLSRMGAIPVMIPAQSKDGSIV
WTCAR-GST cytoplasmic tail: residues 259-365 of P78310
AACAR-GFP (CAR T290A & S293A, non-phosphorylated mutant, GFP-tagged) (P78310, form named): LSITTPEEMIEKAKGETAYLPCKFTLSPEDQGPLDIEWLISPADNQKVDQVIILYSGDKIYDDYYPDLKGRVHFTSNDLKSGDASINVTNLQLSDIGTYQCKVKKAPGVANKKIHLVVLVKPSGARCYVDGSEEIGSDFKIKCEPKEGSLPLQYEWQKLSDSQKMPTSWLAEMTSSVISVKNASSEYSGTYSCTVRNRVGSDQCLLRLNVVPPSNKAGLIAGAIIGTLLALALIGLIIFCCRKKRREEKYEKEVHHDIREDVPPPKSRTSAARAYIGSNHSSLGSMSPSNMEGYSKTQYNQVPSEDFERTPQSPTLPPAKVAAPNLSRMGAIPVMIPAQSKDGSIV
DDCAR-GST cytoplasmic tail (T290D & S293D, phospho-mimetic) (P78310, form named): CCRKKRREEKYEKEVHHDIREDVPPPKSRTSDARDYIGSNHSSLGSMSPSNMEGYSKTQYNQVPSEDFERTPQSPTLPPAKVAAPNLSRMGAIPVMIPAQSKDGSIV
UniProt P09055, residues 21-798: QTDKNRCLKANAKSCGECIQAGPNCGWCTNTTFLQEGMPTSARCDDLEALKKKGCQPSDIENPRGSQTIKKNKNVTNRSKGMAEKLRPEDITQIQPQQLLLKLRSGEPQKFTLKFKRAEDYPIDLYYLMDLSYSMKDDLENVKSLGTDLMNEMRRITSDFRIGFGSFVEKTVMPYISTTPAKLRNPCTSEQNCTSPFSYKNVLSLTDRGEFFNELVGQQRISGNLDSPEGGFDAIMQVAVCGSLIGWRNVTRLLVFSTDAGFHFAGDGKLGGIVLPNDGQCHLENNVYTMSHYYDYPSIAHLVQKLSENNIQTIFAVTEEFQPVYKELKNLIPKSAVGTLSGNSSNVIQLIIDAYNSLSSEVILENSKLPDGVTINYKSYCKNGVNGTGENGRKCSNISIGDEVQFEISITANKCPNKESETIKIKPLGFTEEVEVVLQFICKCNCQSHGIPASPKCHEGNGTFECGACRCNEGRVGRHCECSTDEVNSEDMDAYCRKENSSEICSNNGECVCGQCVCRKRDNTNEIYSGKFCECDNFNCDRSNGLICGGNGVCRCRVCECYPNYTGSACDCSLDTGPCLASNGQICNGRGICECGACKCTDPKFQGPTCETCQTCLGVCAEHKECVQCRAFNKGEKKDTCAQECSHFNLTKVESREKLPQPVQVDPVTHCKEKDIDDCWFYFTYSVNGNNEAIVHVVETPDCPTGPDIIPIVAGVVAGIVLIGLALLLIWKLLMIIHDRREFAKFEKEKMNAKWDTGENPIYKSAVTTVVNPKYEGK
UniProt P34152: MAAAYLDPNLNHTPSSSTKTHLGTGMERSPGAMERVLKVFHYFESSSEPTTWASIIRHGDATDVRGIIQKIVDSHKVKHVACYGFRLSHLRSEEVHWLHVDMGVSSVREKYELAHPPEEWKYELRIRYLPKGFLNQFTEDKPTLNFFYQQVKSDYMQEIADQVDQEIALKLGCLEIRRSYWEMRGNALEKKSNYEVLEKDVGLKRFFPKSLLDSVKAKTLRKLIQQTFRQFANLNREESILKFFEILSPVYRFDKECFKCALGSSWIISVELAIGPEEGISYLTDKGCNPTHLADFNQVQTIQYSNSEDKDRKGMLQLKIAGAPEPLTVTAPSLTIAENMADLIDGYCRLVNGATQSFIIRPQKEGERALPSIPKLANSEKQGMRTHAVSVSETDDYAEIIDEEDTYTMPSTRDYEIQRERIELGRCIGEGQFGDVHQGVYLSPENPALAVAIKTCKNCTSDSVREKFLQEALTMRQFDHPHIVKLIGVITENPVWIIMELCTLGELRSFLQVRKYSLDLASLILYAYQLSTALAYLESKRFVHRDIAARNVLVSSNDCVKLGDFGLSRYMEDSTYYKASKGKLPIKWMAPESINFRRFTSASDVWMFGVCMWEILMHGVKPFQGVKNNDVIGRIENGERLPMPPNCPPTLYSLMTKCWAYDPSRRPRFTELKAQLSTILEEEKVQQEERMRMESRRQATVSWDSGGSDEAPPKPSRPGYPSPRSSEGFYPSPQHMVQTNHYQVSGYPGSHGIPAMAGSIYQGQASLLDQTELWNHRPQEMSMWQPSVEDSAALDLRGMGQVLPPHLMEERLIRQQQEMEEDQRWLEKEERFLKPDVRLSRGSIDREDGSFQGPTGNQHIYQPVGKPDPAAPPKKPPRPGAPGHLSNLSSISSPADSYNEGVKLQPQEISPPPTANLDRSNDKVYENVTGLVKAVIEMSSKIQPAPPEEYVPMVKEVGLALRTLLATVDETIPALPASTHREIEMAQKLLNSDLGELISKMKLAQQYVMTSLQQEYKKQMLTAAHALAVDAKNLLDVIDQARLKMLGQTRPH
UniProt Q8VI36: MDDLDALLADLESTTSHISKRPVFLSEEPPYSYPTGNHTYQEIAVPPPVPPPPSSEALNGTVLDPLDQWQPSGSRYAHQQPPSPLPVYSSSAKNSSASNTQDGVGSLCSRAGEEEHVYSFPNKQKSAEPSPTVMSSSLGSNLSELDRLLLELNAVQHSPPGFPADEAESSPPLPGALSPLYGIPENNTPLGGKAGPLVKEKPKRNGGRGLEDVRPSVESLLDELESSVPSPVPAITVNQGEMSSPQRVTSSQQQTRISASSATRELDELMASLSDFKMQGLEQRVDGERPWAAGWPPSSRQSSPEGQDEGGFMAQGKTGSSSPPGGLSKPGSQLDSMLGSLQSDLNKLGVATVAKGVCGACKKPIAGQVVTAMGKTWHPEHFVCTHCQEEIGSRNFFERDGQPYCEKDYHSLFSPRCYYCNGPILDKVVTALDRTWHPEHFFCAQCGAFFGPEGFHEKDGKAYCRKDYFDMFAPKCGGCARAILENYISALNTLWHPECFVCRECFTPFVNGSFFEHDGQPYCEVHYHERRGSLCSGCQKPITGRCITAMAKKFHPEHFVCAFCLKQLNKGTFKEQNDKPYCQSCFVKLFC

Tests used:
[1] = molecular target: WTCAR-GFP (coxsackie and adenovirus receptor, wild type, GFP-tagged) (UniProt P78310); test: co-IP; GFP-Trap beads on lysates of LLC and CMT cells expressing GFP-tagged proteins, 2 h at 4 °C; IP lysis buffer pH 7.4, 50 mM Tris, 150 mM NaCl, 50 mM NaF, 1 mM EDTA, 1% Triton X-100, 1% NP40; blots for FAK, paxillin, Src, GFP (Figure 5B)
[2] = molecular target: AACAR-GFP (CAR T290A & S293A, non-phosphorylated mutant, GFP-tagged) (UniProt P78310); test: as above
[3] = molecular target: DDCAR-GST cytoplasmic tail (T290D & S293D, phospho-mimetic) (UniProt P78310); test: pull-down; GST or CAR-GST cytoplasmic tail (WT, AA, DD) on beads incubated with lysates of CMT parental cells for 3 h at 4 °C in IP buffer, washed three times, immunoblotted (Figure 5C, D); only the target purified
[4] = molecular target: WTCAR-GST cytoplasmic tail (UniProt P78310); test: as above
[5] = molecular target: β1 integrin (mouse (endogenous in CMT 167 and LLC)) (UniProt P09055); test: co-IP; immunoprecipitation of β1 integrins from lysates of the specified cell lines, blots probed for β1 integrin and GFP (Figure 5A); IP lysis buffer pH 7.4, 50 mM Tris, 150 mM NaCl, 1% Triton X-100, 1% NP40

| Substance | binding [1] | binding [2] | binding [3] | binding [4] | binding [5] |
| --- | --- | --- | --- | --- | --- |
| Focal Adhesion Kinase (FAK) (from UniProt P34152 1-1052) (enzyme) | binds | no binding | binds | binds | – |
| WTCAR-GFP (coxsackie and adenovirus receptor, wild type, GFP-tagged) (from UniProt P78310 20-365) | – | – | – | – | binds |
| paxillin (from UniProt Q8VI36 1-591) | binds | no binding | binds | binds | – |
| AACAR-GFP (CAR T290A & S293A, non-phosphorylated mutant, GFP-tagged) (from UniProt P78310 20-365) (receptor) | – | – | – | – | no binding |
